Measured values reported in publication PMC4336329 (PLoS ONE, 2015).
The whole screen tested about 310,000 compounds, of which about 2,200 (0.71%) showed an effect of 50% or more. The effect is printed as a negative number. The list shows a part of the results.

Each compound was assayed against human ether-à-go-go-related gene (hERG) potassium channel (human, UniProt Q12809) (assay: primary screen, population patch clamp on CHO cells stably expressing hERG).
Chain of human ether-à-go-go-related gene (hERG) potassium channel (Q12809 whole entry, looked up): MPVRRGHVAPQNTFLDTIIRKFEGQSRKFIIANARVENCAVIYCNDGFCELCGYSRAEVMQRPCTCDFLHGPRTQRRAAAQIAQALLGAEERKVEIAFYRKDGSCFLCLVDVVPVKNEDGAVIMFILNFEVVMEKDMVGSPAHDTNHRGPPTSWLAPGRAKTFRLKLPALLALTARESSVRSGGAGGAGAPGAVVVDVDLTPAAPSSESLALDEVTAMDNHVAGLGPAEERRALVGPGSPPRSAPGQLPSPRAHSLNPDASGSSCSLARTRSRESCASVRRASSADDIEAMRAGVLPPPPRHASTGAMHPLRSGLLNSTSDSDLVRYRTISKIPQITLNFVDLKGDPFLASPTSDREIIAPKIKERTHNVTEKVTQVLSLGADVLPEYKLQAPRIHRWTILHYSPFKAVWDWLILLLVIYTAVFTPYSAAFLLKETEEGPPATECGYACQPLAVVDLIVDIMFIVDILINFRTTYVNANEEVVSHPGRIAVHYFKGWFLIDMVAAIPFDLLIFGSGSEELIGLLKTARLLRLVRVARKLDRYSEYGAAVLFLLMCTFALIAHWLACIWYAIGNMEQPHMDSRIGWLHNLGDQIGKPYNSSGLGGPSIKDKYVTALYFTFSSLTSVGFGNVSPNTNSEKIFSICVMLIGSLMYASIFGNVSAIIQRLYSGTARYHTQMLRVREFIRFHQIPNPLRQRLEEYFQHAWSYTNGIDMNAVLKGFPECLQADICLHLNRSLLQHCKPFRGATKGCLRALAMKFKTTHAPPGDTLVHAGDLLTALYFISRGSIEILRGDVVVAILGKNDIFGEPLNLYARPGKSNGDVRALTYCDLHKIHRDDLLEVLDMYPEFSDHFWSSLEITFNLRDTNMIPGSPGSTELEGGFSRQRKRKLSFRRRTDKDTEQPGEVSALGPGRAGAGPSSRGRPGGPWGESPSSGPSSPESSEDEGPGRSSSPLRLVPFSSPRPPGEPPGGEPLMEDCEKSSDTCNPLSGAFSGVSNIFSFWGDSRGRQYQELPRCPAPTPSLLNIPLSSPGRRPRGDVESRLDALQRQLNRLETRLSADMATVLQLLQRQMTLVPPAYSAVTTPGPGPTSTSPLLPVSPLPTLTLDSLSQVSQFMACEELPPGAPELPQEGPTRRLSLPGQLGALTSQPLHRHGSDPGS

Q: For `COc1ccc(/C(C)=N/NC(=O)CNC(=O)c2ccco2)cc1`, which “hERG current change (%, negative = inhibition) at 1uM” value is on record?
A: 8.89%

Q: For `CN1/C(=C\C=C2/SC(=S)N(CC(=O)O)C2=O)C(C)(C)c2ccccc21`, which “hERG current change (%, negative = inhibition) at 1uM” value is on record?
A: 15.9%

Q: `NS(=O)(=O)c1ccc(CNC(=O)C(c2ccccc2)c2ccccc2)cc1` was tested. Which “hERG current change (%, negative = inhibition) at 1uM” value did it give?
A: 12.6%

Q: For `COc1ccc(C2NC(=S)NC3=C2CCc2cc(OC)ccc23)cc1` (stereo not drawn), which “hERG current change (%, negative = inhibition) at 1uM” value is on record?
A: 22.2%

Q: For `Cc1cc2occ(CC(=O)N(C)CC(=O)Nc3ccccc3Cl)c2cc1C`, which “hERG current change (%, negative = inhibition) at 1uM” value is on record?
A: -0.789%

Q: How did the “hERG current change (%, negative = inhibition) at 1uM” value turn out when `CN1CCN(C(=O)c2ccccc2NC(=O)c2ccccc2Br)CC1` was run?
A: -7.65%

Q: For `CCOc1ccc(N(C)S(=O)(=O)c2cc(-c3cc(C)no3)ccc2C)cc1`, which “hERG current change (%, negative = inhibition) at 1uM” value is on record?
A: 12.4%

Q: For `Cc1ccnc(SCc2cc(=O)c(OC(=O)c3cccs3)co2)n1`, which “hERG current change (%, negative = inhibition) at 1uM” value is on record?
A: 5.72%

Q: For `CC1CCN(S(=O)(=O)c2cccc(C(=O)NNC(=O)c3ccco3)c2)CC1`, which “hERG current change (%, negative = inhibition) at 1uM” value is on record?
A: 15.1%

Q: `C=C1CCN(C(C(=O)OC)C(C)C)S(=O)(=O)c2ccc(F)cc21` (stereo not drawn) was tested. Which “hERG current change (%, negative = inhibition) at 1uM” value did it give?
A: 8.28%

Q: With `COc1ccc(/C=N/NC(=O)c2nc(-c3ccccc3)n(-c3ccccc3)n2)cc1` as the compound, how does the “hERG current change (%, negative = inhibition) at 1uM” value read?
A: 19.3%

Q: For `CCc1ccccc1NC(=S)N(Cc1ccc(OC)cc1)CC1CCC(C(=O)O)CC1` (stereo not drawn), which “hERG current change (%, negative = inhibition) at 1uM” value is on record?
A: 8.22%

Q: How did the “hERG current change (%, negative = inhibition) at 1uM” value turn out when `CCOc1ccc(CN2CCN(C(=O)Cc3ccccc3)CC2)cc1.O=C(O)C(=O)O` was run?
A: 2.28%

Q: How did the “hERG current change (%, negative = inhibition) at 1uM” value turn out when `O=C(NCc1cccc(C(F)(F)F)c1)C1CC(c2cccc(F)c2)=NO1` (stereo not drawn) was run?
A: 6.77%

Q: With `Cc1[nH]n(-c2ccccc2)c(=O)c1C(c1cccc([N+](=O)[O-])c1)c1c(C)[nH]n(-c2ccccc2)c1=O` as the compound, how does the “hERG current change (%, negative = inhibition) at 1uM” value read?
A: 10.4%

Q: For `O=C1CC2(CCN(C(=O)c3ccc(F)cc3)CC2)Oc2ccccc21`, which “hERG current change (%, negative = inhibition) at 1uM” value is on record?
A: -42.2%

Q: How did the “hERG current change (%, negative = inhibition) at 1uM” value turn out when `CCCCC(=O)NC(=S)Nc1cc(C(=O)O)ccc1OC` was run?
A: 13.1%

Q: `CC(=O)c1ccc(S(=O)(=O)Nc2ccc(C(=O)N(C)CC(=O)Nc3cccc(C)c3C)cc2)cc1` was tested. Which “hERG current change (%, negative = inhibition) at 1uM” value did it give?
A: 10.9%

Q: How did the “hERG current change (%, negative = inhibition) at 1uM” value turn out when `C=C(C)c1cccc(C(C)(C)NC(=O)Nc2cc(C)ccc2OC)c1` was run?
A: 11.9%

Q: For `COC(=O)c1cc(S(=O)(=O)N2CCCCCC2)cn1C`, which “hERG current change (%, negative = inhibition) at 1uM” value is on record?
A: 15.2%

Q: How did the “hERG current change (%, negative = inhibition) at 1uM” value turn out when `CCCn1c(=O)n(N)c2ccccc21` was run?
A: 7.11%

Q: For `O=C(c1cnc2sccn2c1=O)N1CCN(c2ccccc2Cl)CC1`, which “hERG current change (%, negative = inhibition) at 1uM” value is on record?
A: 8.86%

Q: How did the “hERG current change (%, negative = inhibition) at 1uM” value turn out when `O=C(NCCCNC(=O)NC1CCCCC1)NC1CCCCC1` was run?
A: 15%

Q: `COc1ccc2ccccc2c1CNCCc1ccccc1.Cl` was tested. Which “hERG current change (%, negative = inhibition) at 1uM” value did it give?
A: 0.34%

Q: `CCc1cc(/C(Cc2csc(C)n2)=N/O)c(O)cc1O` was tested. Which “hERG current change (%, negative = inhibition) at 1uM” value did it give?
A: 10.9%

Q: `N#Cc1cc2c(nc1SCC(=O)Nc1sc3c(c1C#N)CCC3)CCCCC2` was tested. Which “hERG current change (%, negative = inhibition) at 1uM” value did it give?
A: -0.858%

Q: How did the “hERG current change (%, negative = inhibition) at 1uM” value turn out when `Cc1ccc(C(=O)CC(C(=O)O)n2ccc(C)n2)cc1` (stereo not drawn) was run?
A: 8.84%

Q: `CC(=O)NC(Cc1cccc(C)c1)C(=O)NC1CCN(c2ncccc2[N+](=O)[O-])CC1` (stereo not drawn) was tested. Which “hERG current change (%, negative = inhibition) at 1uM” value did it give?
A: 9.08%

Q: With `CC(C)NC(=O)COc1coc(CN2CCN(C(=O)c3ccco3)CC2)cc1=O` as the compound, how does the “hERG current change (%, negative = inhibition) at 1uM” value read?
A: 19.3%

Q: `O=[N+]([O-])c1cccc(S(=O)(=O)N2CCN(c3ccccn3)CC2)c1` was tested. Which “hERG current change (%, negative = inhibition) at 1uM” value did it give?
A: 10.8%

Q: `COc1ccccc1NC(=O)c1ccc(C)s1` was tested. Which “hERG current change (%, negative = inhibition) at 1uM” value did it give?
A: 15%

Q: Which “hERG current change (%, negative = inhibition) at 1uM” value does the source give for `Cc1n[nH]c(=O)nc1NC1CCCCC1` here?
A: 15.8%

Q: For `O=C(Nc1nc2ccccc2[nH]1)c1ccc([N+](=O)[O-])cc1`, which “hERG current change (%, negative = inhibition) at 1uM” value is on record?
A: 25.7%

Q: For `Cc1ccccc1N1CCN(C2CCCN(C(=O)COc3ccccc3)C2)CC1` (stereo not drawn), which “hERG current change (%, negative = inhibition) at 1uM” value is on record?
A: -33.2%

Q: How did the “hERG current change (%, negative = inhibition) at 1uM” value turn out when `Fc1ccc(-c2csc(-c3ccncc3)n2)cc1` was run?
A: 1.28%

Q: `O=C(COC(=O)c1ccncc1)Nc1cc(Cl)c(Cl)cc1Cl` was tested. Which “hERG current change (%, negative = inhibition) at 1uM” value did it give?
A: 3.01%

Q: How did the “hERG current change (%, negative = inhibition) at 1uM” value turn out when `CC(=O)O[C@H]1C2OC(=O)C(C)=C2[C@@H]2OC(=O)[C@]3(CCC4OC41C)OC23` (stereo partly drawn) was run?
A: 16%

Q: `CCn1c(=O)cc(OCC(=O)N2CCN(c3ccc(F)cc3)CC2)c2ccccc21` was tested. Which “hERG current change (%, negative = inhibition) at 1uM” value did it give?
A: -46.3%

Q: How did the “hERG current change (%, negative = inhibition) at 1uM” value turn out when `Cn1nccc1C(=O)NC1CC(C)(C)Cc2c1cnn2-c1ccc(F)cc1` (stereo not drawn) was run?
A: -20%

Q: `COc1ccc(-n2ncc3c(SCC(=O)N4CCN(c5ccccc5OC)CC4)ncnc32)cc1` was tested. Which “hERG current change (%, negative = inhibition) at 1uM” value did it give?
A: 4.13%

Q: With `Cc1sc(NC(=O)CSc2nnc(-c3ccc(F)cc3)o2)c(C#N)c1C` as the compound, how does the “hERG current change (%, negative = inhibition) at 1uM” value read?
A: 10.5%

Q: How did the “hERG current change (%, negative = inhibition) at 1uM” value turn out when `Cc1ccc(CNc2ccc(Cl)cc2[N+](=O)[O-])cc1` was run?
A: -1.51%

Q: Which “hERG current change (%, negative = inhibition) at 1uM” value does the source give for `COC(=O)c1sccc1NC(=O)c1ccc(C)o1` here?
A: 14.1%

Q: For `CN(C)S(=O)(=O)NCC1CCCN(Cc2ccc(-c3ccccc3)cc2)C1` (stereo not drawn), which “hERG current change (%, negative = inhibition) at 1uM” value is on record?
A: 7.29%

Q: `O=C(/C=C/c1cccs1)Nc1nncs1` was tested. Which “hERG current change (%, negative = inhibition) at 1uM” value did it give?
A: -0.579%
